Values marked as one replicate rest on one cluster of the flow cell; about a third of the high ones do not repeat.
Tested on: ATP
Assay: switch fluorescence ratio, 500 uM ATP over buffer (Cy3 cluster intensity, sum of 5 cycles each) (fold (ratio)); higher = stronger signal-on switching upon ATP binding; sequences stand for … in TCGTCGGCAGCGTCAGATGTGTATAAGAGACAGTTTTTTTTTTTTTTTTTTTTTTTTT…TC
Conditions: aptamer strand: ATP DNA aptamer (quencher-CACCTGGGGGAGTATTGCGGAGGAAGG + anchor), 100 nM annealed; ATP concentration: 500 uM; one replicate
Summary of the method: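 After annealing to 100 nM quencher-labelled ATP aptamer, Cy3-labelled switching-strand clusters on a modified Illumina MiSeq flow-cell were imaged in selection buffer. A second image followed after 15 min with 500 uM ATP at 22 °C, and five such buffer/ATP cycles were done, each separated by NaOH stripping and re-annealing. The fluorescence ratio, averaged per switch-domain sequence, is summed target-cycle over summed buffer-cycle Cy3 intensity per cluster, with clusters outside 100-1000 RFU excluded.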
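Also: ATP exposure 15 min at 22 °C before imaging.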

GTGTATTGCG
switch fluorescence ratio: 1.03

CCTAGAAGCT
switch fluorescence ratio: 1.12

AGAATTAAAA
switch fluorescence ratio: 0.987

TGCAGTGCTG
switch fluorescence ratio: 0.973

TATTATTGTA
switch fluorescence ratio: 1.02

CTCCATTTGG
switch fluorescence ratio: 1.01

TGAAATAATG
switch fluorescence ratio: 0.989

GACGTGGCAG
switch fluorescence ratio: 1.01

GGCGGGAGGC
switch fluorescence ratio: 1.01

GGATCCGTTA
switch fluorescence ratio: 0.995

ATGGCATGG
switch fluorescence ratio: 1.04

GAGGTCCTGA
switch fluorescence ratio: 1.01

CCAAAGCGCT
switch fluorescence ratio: 0.988

TCGTAGGGCT
switch fluorescence ratio: 1

TAGAGTGTA
switch fluorescence ratio: 0.963

TTATTAAGTA
switch fluorescence ratio: 0.989

GGGGTCTTTG
switch fluorescence ratio: 0.962

TACGTTAAGA
switch fluorescence ratio: 1.11

CATTTGTTGT
switch fluorescence ratio: 0.978

ATGCAGTTTA
switch fluorescence ratio: 0.991

TACGTGGCC
switch fluorescence ratio: 0.983

CGTGAGCATT
switch fluorescence ratio: 1.51

CCTAGTGAAT
switch fluorescence ratio: 0.997

AGGGCGGAGA
switch fluorescence ratio: 1.02

TTCGGCCTTC
switch fluorescence ratio: 1.11

TGACTATTAC
switch fluorescence ratio: 1.21

TTGTCTTGCG
switch fluorescence ratio: 1.01

CCGTGGGTAG
switch fluorescence ratio: 0.996

CCCCCCATGC
switch fluorescence ratio: 2.19

TATATGTTCT
switch fluorescence ratio: 0.961

TGTTCAAAC
switch fluorescence ratio: 1.02

GCCTTAGCT
switch fluorescence ratio: 0.999

ATCCCTCG
switch fluorescence ratio: 1.06

GATTTTGAAA
switch fluorescence ratio: 0.987

AGGGACGGGA
switch fluorescence ratio: 1.03

GATGATTGGA
switch fluorescence ratio: 0.941

TTTATTGGA
switch fluorescence ratio: 1.02

GGGGGCATA
switch fluorescence ratio: 0.973

GTTCTTTCAC
switch fluorescence ratio: 1.02

TGCGTATTGG
switch fluorescence ratio: 0.995

GAGGGATGGA
switch fluorescence ratio: 0.996

TAGCGTCGTC
switch fluorescence ratio: 0.985

AGCCGCTGGT
switch fluorescence ratio: 1.01

GTGATAGGCC
switch fluorescence ratio: 0.999

AGACGAATTG
switch fluorescence ratio: 0.998

GCAAACGTAA
switch fluorescence ratio: 1.16

TCGACACGTC
switch fluorescence ratio: 1.1

GGATGCCGAA
switch fluorescence ratio: 0.966

GCAGAGTTTT
switch fluorescence ratio: 1.04

AAATGGGCGA
switch fluorescence ratio: 1.01

AGTTAGTCGA
switch fluorescence ratio: 0.991

GGGGATCGTC
switch fluorescence ratio: 0.988

CAGACACTAG
switch fluorescence ratio: 1.01

TTTAACCA
switch fluorescence ratio: 1.07

ACTTTTCCGA
switch fluorescence ratio: 1.09

TAGCTGTAAC
switch fluorescence ratio: 1.09

TAGGGTACAG
switch fluorescence ratio: 1.02

GAGATCTGCA
switch fluorescence ratio: 0.964

TATCGGAGG
switch fluorescence ratio: 1.03

TACACTTAG
switch fluorescence ratio: 1.06

ACAAGTTGTG
switch fluorescence ratio: 1.01

ATTCCCTGCG
switch fluorescence ratio: 1.17

GGAAACCTGA
switch fluorescence ratio: 3.49

CATTTGGCTC
switch fluorescence ratio: 0.96

CGGGGAGATT
switch fluorescence ratio: 0.973

CGCAACGCAC
switch fluorescence ratio: 1.92

ATTTGAGTTC
switch fluorescence ratio: 1

AGGGTGATAG
switch fluorescence ratio: 1.03

CTTTTGCAGC
switch fluorescence ratio: 1.31

TGGATTACTA
switch fluorescence ratio: 0.98

ATGAACAACC
switch fluorescence ratio: 1.02

TCGCTGAGCA
switch fluorescence ratio: 1.01

CTGTGCTGTA
switch fluorescence ratio: 1.02

CCGATCGGCT
switch fluorescence ratio: 1.02

CTGGGAAACC
switch fluorescence ratio: 1.01

TTGCAGCGTC
switch fluorescence ratio: 1.02

ATGCTTGCCC
switch fluorescence ratio: 0.996

CGGCGGCTGG
switch fluorescence ratio: 0.965

CGAAGCACTT
switch fluorescence ratio: 2.04

AAGTCGGGCA
switch fluorescence ratio: 1.01

CACGAGCGCC
switch fluorescence ratio: 1.05

TCGATTTTAC
switch fluorescence ratio: 1.11

ATCAACTTTT
switch fluorescence ratio: 1

GCCTCCTCGT
switch fluorescence ratio: 1.2

GGATGTATTT
switch fluorescence ratio: 0.986

GCTAGAAACC
switch fluorescence ratio: 1.05

GTATACCCGT
switch fluorescence ratio: 1.05

ATGGTGGAG
switch fluorescence ratio: 0.979

GGGATAAGG
switch fluorescence ratio: 0.986

GTTTTGATTT
switch fluorescence ratio: 0.989

AATGATGCAG
switch fluorescence ratio: 1.03

CACCAATTTA
switch fluorescence ratio: 1.04

AGGGGTAAAC
switch fluorescence ratio: 1.02

AGCTTGGGGT
switch fluorescence ratio: 0.94

TCACTGCTGG
switch fluorescence ratio: 1.01

TTCCCAGGG
switch fluorescence ratio: 1.92

TCAATCAATA
switch fluorescence ratio: 1.03

TTGGAGGCTA
switch fluorescence ratio: 1.01

TCAAATCGCG
switch fluorescence ratio: 1.02

CCTAACTGT
switch fluorescence ratio: 1.03

ATTAGGTAGC
switch fluorescence ratio: 1.01

TGGGGAGGTG
switch fluorescence ratio: 0.968

GCTGTGTCTC
switch fluorescence ratio: 0.99

TGGGTACGAA
switch fluorescence ratio: 0.981

ATACGTAGAA
switch fluorescence ratio: 1.09

GCATCGATTG
switch fluorescence ratio: 0.981

TAGCTGCTTA
switch fluorescence ratio: 0.989

TTGTGCACAC
switch fluorescence ratio: 1.01

CTGTGCTGGT
switch fluorescence ratio: 0.986

TATTTACACT
switch fluorescence ratio: 1.05

TTATGACTAG
switch fluorescence ratio: 0.984

TTGCGTGAGG
switch fluorescence ratio: 1.1

GTGTTGGGTT
switch fluorescence ratio: 0.979

GGCTATCCCG
switch fluorescence ratio: 0.984

ATTCAGATGT
switch fluorescence ratio: 1.04

GAGTGCCTAA
switch fluorescence ratio: 0.993

TTACGAGCTG
switch fluorescence ratio: 1.06

TTGGTGACTT
switch fluorescence ratio: 0.95

CATGCGTTGC
switch fluorescence ratio: 1.04

TTTACGAGTC
switch fluorescence ratio: 1

TTTCCCGCCG
switch fluorescence ratio: 1.06

AACAAGAGT
switch fluorescence ratio: 0.997

TTAAGTCTGT
switch fluorescence ratio: 1.01

CGGACTAGCA
switch fluorescence ratio: 1.14

TCCGTCTTCC
switch fluorescence ratio: 1.1

TGAGCACCTG
switch fluorescence ratio: 1.01

TTCACGTTAC
switch fluorescence ratio: 1.54

ACCCGCTAGA
switch fluorescence ratio: 1.62

ACCGGCGCTT
switch fluorescence ratio: 1.28

TCCGTTAGCT
switch fluorescence ratio: 1.52

ATCACTGAGG
switch fluorescence ratio: 0.999

TCTTGAGTGT
switch fluorescence ratio: 1.02

TCTTAATTTA
switch fluorescence ratio: 1.01

ACTTATGAGT
switch fluorescence ratio: 0.976

TATTACTGCG
switch fluorescence ratio: 0.997

TTGTTAGCA
switch fluorescence ratio: 1.16

AGTCTGGCCG
switch fluorescence ratio: 1.04

TTGGTGTCGA
switch fluorescence ratio: 1.01

TAAATTGGAG
switch fluorescence ratio: 1.07

GGACACCAGC
switch fluorescence ratio: 1.1

TTTAATAACT
switch fluorescence ratio: 1.01

TGTCTCAAAC
switch fluorescence ratio: 0.998

CGAGGCGGTT
switch fluorescence ratio: 1.05

TACAGCCTGG
switch fluorescence ratio: 1.02

CAGGCGCGTT
switch fluorescence ratio: 1

CAAGCAATCC
switch fluorescence ratio: 2.25

GCTTACCGTT
switch fluorescence ratio: 0.97

TAGGTCACGA
switch fluorescence ratio: 1.02

TTCGAGAACA
switch fluorescence ratio: 0.97

AAGTATGTTA
switch fluorescence ratio: 0.986

GTGCTGCAGG
switch fluorescence ratio: 0.95

TGAAAACTAG
switch fluorescence ratio: 1.01

ACGCGGTGCG
switch fluorescence ratio: 1.01

CAGAATGGGT
switch fluorescence ratio: 0.919

TGATCGATTA
switch fluorescence ratio: 0.984

ATCAAAAAGA
switch fluorescence ratio: 1.01

CGTGTGTGCT
switch fluorescence ratio: 1.01

GTCTGTGAGT
switch fluorescence ratio: 0.999

AGATAGCCGT
switch fluorescence ratio: 0.962

TAATCTTGAC
switch fluorescence ratio: 1.03

TTGTGGCTTC
switch fluorescence ratio: 1.01

TGATCCAGGT
switch fluorescence ratio: 1.17

ATGAACGGCG
switch fluorescence ratio: 1.06

GAGCCGCTAT
switch fluorescence ratio: 1.19

GGTAGTCGCT
switch fluorescence ratio: 0.999

ATTCGGCCGT
switch fluorescence ratio: 0.977

ACTACCAGAA
switch fluorescence ratio: 1.08

TGCACTCGTA
switch fluorescence ratio: 1.02

TTACATTCCA
switch fluorescence ratio: 1.05

TCTTGGTAAA
switch fluorescence ratio: 1.02

AAGTGAGCTC
switch fluorescence ratio: 1.02

TTAGCGAACA
switch fluorescence ratio: 1.04

TGATGCTCCG
switch fluorescence ratio: 0.993

TAGGAGCCCT
switch fluorescence ratio: 1.02

AATAGAAGC
switch fluorescence ratio: 1.03

GGCGCCACGG
switch fluorescence ratio: 0.981

GAGTGTGCT
switch fluorescence ratio: 1.05

ATGGATAACC
switch fluorescence ratio: 1

TCAAGTAGAA
switch fluorescence ratio: 1.04

CTGCGTGGGG
switch fluorescence ratio: 1.01

AGCAGTGATC
switch fluorescence ratio: 1.1

GCTGGGTCCG
switch fluorescence ratio: 0.955

GAATTGGTT
switch fluorescence ratio: 1.02

ACCGCCAGTC
switch fluorescence ratio: 1.26

CAAACTAACG
switch fluorescence ratio: 1.23

ACAATCAATA
switch fluorescence ratio: 1.01

TTGCGGATCT
switch fluorescence ratio: 1.04

AGGGAGTGAG
switch fluorescence ratio: 0.992

TGGTCATCCG
switch fluorescence ratio: 1.01

CTAAGGGCGG
switch fluorescence ratio: 1

CGCGCTGGCC
switch fluorescence ratio: 1.05

CGTCCTCCCC
switch fluorescence ratio: 3.57

CGTTGATACG
switch fluorescence ratio: 1.02

CGGTTGGAAC
switch fluorescence ratio: 0.984

TAGAAAAGTT
switch fluorescence ratio: 0.943

CACAGGGAAG
switch fluorescence ratio: 0.992

ATGTGTTGGC
switch fluorescence ratio: 0.969

GGATCGGTTC
switch fluorescence ratio: 1.02

GGCTTGATGA
switch fluorescence ratio: 0.965

GCATTATTA
switch fluorescence ratio: 1.01

TGAC
switch fluorescence ratio: 1.03
